Our source for the phenotypic hit values is the supplement of paper PMC2702839.

The structures appear in SMILES notation. Structures can show the parent of a compound that is named as a salt. This is one part of the list.

The experiment concerns Schistosoma mansoni schistosomula. Nature of the experiment: phenotypic hit in primary schistosomula screen (any phenotype vs DMSO control) (binary (1 = hit, 0 = no phenotype)); higher = active (phenotype induced). Conditions: 1 µM; time (d): 7.
Take `CC(NC(C)(C)C)C(=O)c1cccc(Cl)c1` (configuration not stated) [Bupropion hydrochloride]: the phenotypic hit was inactive: 0.

Take `CC(=O)[C@H]1CC[C@H]2[C@@H]3CC[C@H]4C[C@H](O)CC[C@]4(C)[C@H]3CC[C@]12C` [allopregnanolone]: the phenotypic hit was inactive: 0.

Regarding `CCOC(=O)CC(SP(=S)(OC)OC)C(=O)OCC` (configuration not stated) [malathion], the phenotypic hit was inactive: 0.

Turning to `CC(N)Cc1ccc(O)cc1` (configuration not stated) [hydroxyamphetamine hydrobromide], the phenotypic hit is inactive: 0.

For the compound `O=c1c2ccccc2[se]n1-c1ccccc1` [ebselen], the phenotypic hit is inactive: 0.

For `N=C(NCCC[C@H](N)C(=O)O)N[N+](=O)[O-]` [NG-Nitro-L-arginine], the phenotypic hit was inactive: 0.

On to `C[C@]12CC[C@H]3[C@@H](CCC4=CC(=O)CC[C@@]43C)[C@@H]1CC[C@@H]2O` [testosterone], for which the phenotypic hit is inactive: 0.

Consider `COc1cc2c3cc1Oc1c(OC)c(OC)cc4c1[C@@H](Cc1cccc(c1)Oc1ccc(c(O)c1)C[C@@H]3N(C)CC2)N(C)CC4` [berbamine hydrochloride], for which the phenotypic hit was inactive: 0.

Turning to `O=c1ccc2cc(O[C@@H]3O[C@H](CO)[C@@H](O)[C@H](O)[C@H]3O)c(O)cc2o1` [aesculin], the phenotypic hit was inactive: 0.

On to `COP(=O)(NC(C)=O)SC` (configuration not stated) [acephate], for which the phenotypic hit is inactive: 0.

For `COc1c2c(cc3c1OCO3)CCN(C)C2` [hydrocotarnine hydrobromide], the phenotypic hit was inactive: 0.

As to `C[C@]12CCC(=O)C[C@@H]1CC[C@@H]1[C@@H]2CC[C@]2(C)C(=O)CC[C@@H]12` [5alpha-androstan-3,17-dione], the phenotypic hit was inactive: 0.

Take `C[C@]12CC[C@H](O)C[C@H]1CC[C@@H]1[C@@H]2CC[C@]2(C)[C@@H](C3=CC(=O)OC3)[C@@H](O)C[C@]12O` [gitoxigenin]: the phenotypic hit is inactive: 0.

With `CNC(=O)CSP(=S)(OC)OC` [dimethoate], the phenotypic hit is inactive: 0.

With `CCNc1nc(Cl)nc(NC(C)C)n1` [atrazine], the phenotypic hit is inactive: 0.

Consider `C=CCc1ccc2c(c1)OCO2` [safrole], for which the phenotypic hit was inactive: 0.

In the case of `CCCC(C)C1(CC)C(=O)NC(=O)NC1=O` (configuration not stated) [pentobarbital], the phenotypic hit is inactive: 0.

`Cc1ccc2cc3c(ccc4ccccc43)c3c2c1CC3` [3-methylcholanthrene]: the phenotypic hit was inactive: 0.

As for `C[C@@H]1C(=O)O[C@H]2[C@H]1CC[C@@]1(C)C=CC(=O)[C@@]3(C)O[C@@]213` [epoxy (4,5alpha)-4,5-dihydrosantonin], the phenotypic hit is inactive: 0.

In the case of `C=CCN1CC[C@]23c4c5ccc(O)c4O[C@H]2C(=O)CC[C@@]3(O)[C@H]1C5` [naloxone hydrochloride], the phenotypic hit is inactive: 0.

For `C[C@]12CCC(=O)C=C1C=C[C@@H]1[C@@H]2CC[C@@]2(C)[C@H]1CC[C@@]2(O)CCC(=O)O` [canrenoic acid, potassium salt], the phenotypic hit was inactive: 0.

`CCOP(=S)(OCC)SCn1c(=O)oc2cc(Cl)ccc21` [phosalone]: the phenotypic hit is inactive: 0.

Consider `O=C(O)COc1ccc(Cl)cc1Cl` [2,4-dichlorophenoxyacetic acid], for which the phenotypic hit is inactive: 0.

For `CCNc1nc(Cl)nc(NCC)n1` [simazine], the phenotypic hit is inactive: 0.

`CO[C@H]1[C@H](O)[C@H](O[C@H]2CC[C@@]3(C=O)[C@H](CC[C@@H]4[C@@H]3CC[C@]3(C)[C@@H](C5=CC(=O)OC5)CC[C@]43O)C2)O[C@@H](C)[C@@H]1O` [peruvoside]: the phenotypic hit was inactive: 0.

Consider `CC[C@@H](C(=O)[C@@H](C)[C@@H](O)[C@H](C)[C@@H]1O[C@@H]([C@@H](CC)C(=O)O)CC[C@@H]1C)[C@H]1O[C@]2(C=C[C@@H](O)[C@]3(CC[C@@](C)([C@H]4CC[C@](O)(CC)[C@H](C)O4)O3)O2)[C@H](C)C[C@@H]1C` [salinomycin, sodium], for which the phenotypic hit was active: 1.

Consider `CC(=O)O[C@@H]1[C@H]2CC[C@H]3[C@@](C)(O)[C@@H]4C[C@H](O)C(C)(C)[C@@]4(O)[C@H](O)C[C@@]13C[C@@]2(C)O` [grayanotoxin i], for which the phenotypic hit was inactive: 0.

As for `CO[C@H]1C[C@H](O[C@H]2CC[C@@]3(C)[C@H](CC[C@@H]4[C@@H]3CC[C@]3(C)[C@@H](C5=CC(=O)OC5)[C@@H](OC(C)=O)C[C@]43O)C2)O[C@@H](C)[C@@H]1O` [oleandrin], the phenotypic hit is inactive: 0.

In the case of `C=C1C([C@]2(C)C(CC(=O)OC)[C@@](C)(COC(C)=O)OC(=O)C[C@@H]2OC(C)=O)[C@@H](OC=O)[C@H](OC(=O)C(OC(C)=O)C(C)CC)[C@@]2(C)[C@H](c3ccoc3)CC(=O)C12O` (some centres not stated) [prieuranin acetate], the phenotypic hit is inactive: 0.

As for `COP(=O)(OC)OC=C(Cl)Cl` [dichlorvos], the phenotypic hit was inactive: 0.

For `C[C@H]1CC[C@]2(NC1)O[C@H]1C[C@H]3[C@@H]4CC[C@H]5C[C@@H](O)CC[C@]5(C)[C@H]4CC[C@]3(C)[C@H]1[C@@H]2C` [tomatidine hydrochloride], the phenotypic hit was inactive: 0.

In the case of `S=C=NCc1ccccc1` [benzyl isothiocyanate], the phenotypic hit is inactive: 0.
